Hit rate of the full screen: of about 48,000 compounds, about 550 (1.1%) were called active. Inconclusive means that the source gave no clear call. Such entries were picked first, then a sample of the others. Rule as the data show it: active = potency below about 15 µM; inconclusive = mostly about 16 µM to 33 µM; inactive = weaker than that. No potency is given beside an inconclusive call; the fits are too rough.
Target: Lysosomal acid glucosylceramidase (Homo sapiens) (UniProt P04062)
Assay: Glucocerebrosidase;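 also: the screen sought inhibitors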
Conditions: purified enzyme, resorufin glucoside fluorescence (screen aimed at inhibitors), 20 min
Method in brief: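 Normal human glucocerebrosidase (0.2 nM final) was assayed with resorufin β-D-glucopyranoside (30 uM final) in 50mM citric acid/KH2PO4, 10mM sodium taurocholate, 0.01% tween-20, pH 5.9. Compounds were titrated; fluorescence (Ex 548, Em 600) read after 20 min at RT.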
Potency is read from the fitted curve at half-maximal effect.

UniProt P04062, sequence (P04062 whole entry, looked up): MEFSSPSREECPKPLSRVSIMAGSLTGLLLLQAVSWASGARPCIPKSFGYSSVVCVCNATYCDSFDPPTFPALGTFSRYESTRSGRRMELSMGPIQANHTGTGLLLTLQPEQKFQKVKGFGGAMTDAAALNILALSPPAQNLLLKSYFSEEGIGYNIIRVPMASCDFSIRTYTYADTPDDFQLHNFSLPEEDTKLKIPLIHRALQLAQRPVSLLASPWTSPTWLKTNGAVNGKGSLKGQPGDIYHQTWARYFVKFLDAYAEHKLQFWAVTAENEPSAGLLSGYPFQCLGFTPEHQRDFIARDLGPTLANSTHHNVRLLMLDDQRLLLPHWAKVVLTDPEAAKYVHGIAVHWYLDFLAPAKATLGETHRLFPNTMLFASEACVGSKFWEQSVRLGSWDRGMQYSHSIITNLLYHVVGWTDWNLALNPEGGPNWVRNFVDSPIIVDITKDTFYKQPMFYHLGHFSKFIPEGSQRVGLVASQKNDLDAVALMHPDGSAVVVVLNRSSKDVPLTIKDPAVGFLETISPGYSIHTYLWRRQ

SMILES | Potency
Cc1cc(C)n(-c2ccc(C(=O)Nc3ccccn3)cc2)n1 | inactive: > 76.9 µM
COCc1cc(C)nc(SCC(=O)Nc2cc3c(cc2C#N)OCO3)c1C#N | inconclusive [increasing]
Nc1ccc(-n2c(N)c(C(=O)NCc3ccc4c(c3)OCO4)c3nc4ccccc4nc32)cc1 | inconclusive [decreasing]
COc1ccc(OCCN2C(=O)NC(C)(c3ccc(C)cc3)C2=O)cc1 (configuration not stated) | inconclusive [increasing]
CCn1c(SCC(=O)Nc2ccccc2N2CCCCC2)nc2c1c(=O)n(C)c(=O)n2C | inactive: > 76.9 µM
Oc1ccc(C(c2nnnn2C2CCCC2)N2CCc3ccccc3C2)cc1 (configuration not stated) | inconclusive [decreasing]
COc1ccccc1NC(=O)c1cc2ccc(O)cc2o/c1=N\O | inconclusive [increasing]
COc1ccc(CCN2C(=O)c3[nH]nc(-c4ccccc4O)c3C2c2cccc(O)c2)cc1OC (configuration not stated) | inconclusive [decreasing]
COc1cc(-c2nnc(COC(=O)CSc3cc(C)c4ccccc4n3)o2)cc(OC)c1OC | inactive: > 76.9 µM
Cc1cc(N2C3CCC2CC(O)(c2ccc(F)cc2)C3)nc(-c2ccccc2)n1 (configuration not stated) | inconclusive [decreasing]
CCc1nnc(SCc2ccc(OC(C)C)cc2)n1N | inconclusive [decreasing]
CCCCSCCCNC(=O)CS(=O)Cc1nc(-c2cccc(C)c2)oc1C (configuration not stated) | inconclusive [decreasing]
O=C(O)c1cc(-c2ccncc2)nc2ccc(S(=O)(=O)N3CCOCC3)cc12 | inactive: > 76.9 µM
O=C(CN(Cc1ccco1)C(=O)c1cc(=O)[nH]c2ccccc12)Nc1ccccc1C(F)(F)F | inconclusive [decreasing]
CC1CCCCC1NC(=O)c1ccc2c(c1)[nH]c(=O)n2C1CCCC1 (configuration not stated) | inconclusive [decreasing]
Cc1nnc(NC(=O)Cc2cccs2)s1 | inconclusive [decreasing]
COc1cccc(N2CCN(Cc3nc(N)nc(Nc4ccccc4)n3)CC2)c1 | active: 2.91 µM
CCCCC(CCC(=O)Nc1ccccc1C(=O)OCC)C(=O)O (configuration not stated) | inconclusive [decreasing]
COc1ccccc1NC(=O)CN1CCN(CC(=O)Nc2ccc(Cl)c(C(F)(F)F)c2)CC1 | inconclusive [decreasing]
O=C(CCC(=O)N1CCN(C2CCCCC2)CC1)Nc1nnc(C(F)(F)F)s1 | inconclusive [decreasing]
COc1cc(NC(=O)CN2CCN(S(=O)(=O)c3ccc(C(C)C)cc3)CC2)cc(OC)c1 | active: 15.3 µM
N=c1n(CCO)c2ccccc2n1Cc1ccc(Cl)cc1 | inconclusive [decreasing]
c1ccc2c(c1)oc1c(Nc3ccc(CN4CCOCC4)cc3)ncnc12 | inconclusive [decreasing]
COc1ccc(Cn2c(-c3ccco3)nc3oc4ccccc4c(=O)c3c2=O)cc1 | inactive: > 76.9 µM
CCOC(=O)c1cnc(-n2cc(C)cn2)nc1Nc1ccccc1OC | active: 12.3 µM
CCCCN(C)C(=O)CCC(=O)Nc1ccc2nc(N3CCOCC3)cc(C)c2c1 | active: 0.713 µM

SMILES | Potency
O=C(NCCc1ccccc1)c1cnn2c(C(F)F)cc(C3CC3)nc12 | inconclusive [increasing]
O=S(=O)(/N=C(/Nc1cc(N2CCOCC2)ncn1)c1ccc(F)cc1)c1ccccc1 | inactive: > 76.9 µM
O=S(=O)(Nc1ccc(-c2cn3ccsc3n2)cc1)c1ccc2c(c1)OCCO2 | active: 14.9 µM
COc1ccc(NC(=O)N(C2CCCCC2)C2CCN(C(C)C)CC2)c(OC)c1 | inconclusive [decreasing]
NCCCCCc1nnc(SCc2ccccc2Cl)o1 | inconclusive [decreasing]
CS(=O)(=O)Nc1ccc(C(=O)NCc2cccnc2)cc1 | inconclusive [decreasing]
COc1cc(NC(=O)c2ccc(NS(=O)(=O)c3c(C)noc3C)cc2)cc(OC)c1 | active: 11.2 µM
CCN(CC)CC(=O)Nc1ccc(-c2nc3cc(NC(=O)CN(CC)CC)ccc3o2)cc1 | inconclusive [decreasing]
O=C(C1CCC1)N1CCc2cc(S(=O)(=O)Nc3ccc4c(c3)OCCO4)ccc21 | inconclusive [decreasing]
CCN1C(=S)SC(=O)C1=C1C=C(C)N(CCOC)C(C)=C1 | active: 14.8 µM
COc1ccc2nc(NCCO)[nH]c2c1 | inconclusive [decreasing]
COc1ccc(CCC(=O)NCc2ccco2)cc1 | inactive: > 76.9 µM
CCC(CC)C(=O)N(c1ccc(F)cc1)C1C=CS(=O)(=O)C1 (configuration not stated) | inconclusive [decreasing]
O=C1C2ON(c3ccc(Cl)cc3)C(c3ccco3)C2C(=O)N1c1ccccc1 (configuration not stated) | inconclusive [decreasing]
CCOC(=O)c1cnn2c(C(F)(F)F)cc(-c3cn(C)nc3C)nc12 | inconclusive [increasing]
Cn1c(C(=O)NCc2ccco2)cc2c(=O)[nH]c3ccccc3c21 | inactive: > 76.9 µM
CCCCC(=O)Nc1ccc(NC(=O)C(C)C)cn1 | inconclusive [decreasing]
CC(Sc1nc(-c2ccccc2)cc(C(F)(F)F)n1)C(=O)NCCN1CCOCC1 (configuration not stated) | inconclusive [decreasing]
Cc1ccccc1-n1c(SCc2ccccn2)nc2n[nH]c(C)c2c1=N | inconclusive [decreasing]
Cc1cc(C)n(S(=O)(=O)c2cc(C(=O)O)c(Cl)cc2Cl)n1 | inactive: > 76.9 µM
N#Cc1c(-c2ccc(Cl)cc2Cl)nc2n(c1=O)CCS2 | inconclusive [decreasing]
O=C(Nc1nn(Cc2ccccc2F)cc1Br)c1cccs1 | inconclusive [decreasing]
CCc1cc(C(=O)NCCN(C)C)cs1 | inconclusive [decreasing]
c1ccc(Cn2nnc3c(NCCN4CCOCC4)ncnc32)cc1 | inconclusive [decreasing]
NC1=NC2=C(CCCC2)C2(CCCCC2)S1 | inconclusive [decreasing]
N#CCCN1CCN(Cn2c3ccccc3c3ccccc32)CC1 | inconclusive [decreasing]

SMILES | Potency
O=C(NCc1ccco1)c1csc(Nc2ccccc2Cl)n1 | inconclusive [decreasing]
CCOC(=O)CCc1c(C)c2ccc(OC(C)C(=O)OCC)c(C)c2oc1=O (configuration not stated) | inconclusive [increasing]
O=c1c2ccccc2sn1-c1cc(S(=O)(=O)N2CCOCC2)ccc1N1CCOCC1 | inconclusive [decreasing]
CCC(=O)N1CCc2cc(S(=O)(=O)CCC(=O)Nc3c(C)n(C)n(-c4ccccc4)c3=O)ccc21 | inactive: > 76.9 µM
Cc1cc(C)nc(SCC(=O)Nc2ccc(N3CCOCC3)cc2)n1 | inactive: > 76.9 µM
COc1ccc(C)cc1NC(=O)CCC(=O)Nc1ccc2nc(N3CCN(C)CC3)cc(C)c2c1 | active: 9.5 µM
CC(C)c1ccc(C2CC(=O)N3CN(Cc4ccco4)CSC3=C2C#N)cc1 (configuration not stated) | inconclusive [decreasing]
COc1ccccc1NC(=O)N(CCCN1CCOCC1)Cc1cc2cc3c(cc2[nH]c1=O)OCO3 | inconclusive [decreasing]
CSCC[C@H](NC(=O)OC(C)(C)C)c1nnc(SCc2ccc(F)cc2)o1 | inconclusive [decreasing]
CC1CCN(CC(=O)Nc2sc3c(c2C#N)CCC3)CC1 | inactive: > 76.9 µM
CN1Cc2cc(C(=O)c3cc(Cl)cc(CSc4ncccn4)c3O)cnc2NC1=O | inactive
Cc1cc(C)c2c(n1)nn1c(NCCN3CCOCC3)cc(C)nc21 | inconclusive [decreasing]
Cc1ccc2[nH]c(=O)c(-c3nc4cc(C)ccn4c3NCc3ccco3)cc2c1 | inconclusive [decreasing]
COc1ccc(-c2nc(C3CCCCC3)no2)cc1OC | inconclusive [increasing]
CN(c1ccccc1C(=O)N1CCN(c2cccc(Cl)c2)CC1)S(C)(=O)=O | inactive: > 76.9 µM
Cc1cc(C)n(-c2nncn2NC(=O)c2ccc(Cl)cc2O)n1 | inactive: > 76.9 µM
O=C(NC1CC1)c1cccc(Nc2ccc(-c3ccc4c(c3)OCCO4)nn2)c1 | inactive: > 76.9 µM
C=CCn1c(NC(=O)c2ccc(C)cc2)c(C#N)sc1=N | inconclusive [decreasing]
Cc1ccc(/C=N/c2sc3c(c2C#N)CCCCC3)o1 | inconclusive [decreasing]
Cn1c(=O)c2cc(S(=O)(=O)N3CCN(c4cccc(C(F)(F)F)c4)CC3)ccc2n(C)c1=O | active: 7.27 µM
Cc1nonc1NC(=O)Nc1cccnc1 | inconclusive [decreasing]
CCCCC(=O)Nc1cccc(-c2nc3ncccc3o2)c1 | inconclusive [decreasing]
Brc1ccc(-c2nc(-c3ccccc3)no2)o1 | inconclusive [increasing]
CC1=C/C(=C\c2ccc3c(c2)OCO3)C(=O)S1 | inactive: > 76.9 µM
O=C(NC1=NCCS1)c1ccc(-c2ccc(Cl)cc2)o1 | inconclusive [decreasing]
